Laboratory results published in PubChem BioAssay (NCATS).
The inconclusive results got no clear call from the source; some entries with a clear call stand among them for comparison. For some assays here: Potencies beside an inconclusive call are fits to weak or partial responses and may not hold up. For some assays here: A note “side channel” means that the fit belongs to a control or component signal, not to the main read-out. The source made the active and inactive calls. Unless noted, calls come from the whole dose curve.

Experiments:
[1] = biological target: 3',5'-cyclic-AMP phosphodiesterase 4B (Homo sapiens) (UniProt Q07343); assay: qHTS Assay for Inhibitors of PDE-IV (AID 607; active = well fitted activation curve with a large enough effect in the main read-out, with a control signal flat, not every such curve was filed as active; inconclusive = small, poorly fitted or top-dose-only effect, or effect the other way, or a change in a side signal; note: potency is the fitted concentration of half-maximal effect); conditions: HEK293 ACTOne CNG channel cells, membrane potential fluorescence; activation (PDE inhibition): at 22.9 µM (top of the series)
Chain of UniProt Q07343 (Q07343 whole entry, looked up): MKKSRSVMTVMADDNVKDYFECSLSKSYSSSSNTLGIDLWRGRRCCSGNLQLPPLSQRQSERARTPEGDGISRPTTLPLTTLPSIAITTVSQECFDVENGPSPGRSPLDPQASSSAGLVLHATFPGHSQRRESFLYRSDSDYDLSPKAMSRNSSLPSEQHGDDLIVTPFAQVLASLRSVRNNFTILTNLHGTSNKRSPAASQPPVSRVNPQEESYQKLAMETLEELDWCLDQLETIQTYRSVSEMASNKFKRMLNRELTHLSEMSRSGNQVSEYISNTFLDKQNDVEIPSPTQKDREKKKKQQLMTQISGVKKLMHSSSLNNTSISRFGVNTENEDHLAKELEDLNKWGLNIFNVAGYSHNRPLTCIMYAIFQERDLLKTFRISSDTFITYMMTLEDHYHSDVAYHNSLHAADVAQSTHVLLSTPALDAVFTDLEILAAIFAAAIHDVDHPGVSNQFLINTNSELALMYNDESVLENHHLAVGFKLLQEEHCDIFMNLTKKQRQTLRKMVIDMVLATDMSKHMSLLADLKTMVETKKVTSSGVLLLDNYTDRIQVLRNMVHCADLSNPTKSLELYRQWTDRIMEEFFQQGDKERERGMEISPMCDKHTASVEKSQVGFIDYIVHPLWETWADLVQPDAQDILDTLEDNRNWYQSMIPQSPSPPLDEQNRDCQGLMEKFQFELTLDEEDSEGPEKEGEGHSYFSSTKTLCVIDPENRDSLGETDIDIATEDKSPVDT
Summary of the method: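 HEK293 ACTOne cells with CNG channel (1000/well), endogenous PDE4; membrane potential dye, compounds up to 22.9 uM final. Fluorescence Ex 535/Em 590; RO 20-1724 (100 uM final) as reference.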

[2] = biological target: Cytochrome P450 2C9 (Homo sapiens) (UniProt P11712); assay: qHTS Assay for Inhibitors and Substrates of Cytochrome P450 2C9 (AID 883; active = well fitted curve in the direction sought with a large enough effect; inconclusive = small, poorly fitted or top-dose-only effect, or another doubt; inactive = no such curve, though single readings can be large; an effect the other way counts as inactive or inconclusive; note: % is set by controls: 0 for no effect and ±100 for the full control effect; nearly all actives have a fitted effect of over 60% in size)
Chain of UniProt P11712 (P11712 whole entry, looked up): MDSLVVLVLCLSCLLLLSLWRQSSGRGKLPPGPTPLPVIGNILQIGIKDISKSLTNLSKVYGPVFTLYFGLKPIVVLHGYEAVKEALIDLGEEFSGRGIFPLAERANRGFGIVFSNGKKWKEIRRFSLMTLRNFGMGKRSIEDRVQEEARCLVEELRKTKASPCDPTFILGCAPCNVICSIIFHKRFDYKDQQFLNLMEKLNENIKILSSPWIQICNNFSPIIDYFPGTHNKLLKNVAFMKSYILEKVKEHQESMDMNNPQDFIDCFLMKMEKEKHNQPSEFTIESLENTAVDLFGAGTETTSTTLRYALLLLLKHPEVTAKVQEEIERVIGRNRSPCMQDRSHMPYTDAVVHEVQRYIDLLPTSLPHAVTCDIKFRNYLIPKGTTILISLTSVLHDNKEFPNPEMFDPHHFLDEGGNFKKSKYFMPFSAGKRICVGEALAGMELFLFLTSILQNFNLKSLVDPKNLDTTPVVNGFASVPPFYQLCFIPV
Summary of the method: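 Human CYP2C9 (10nM) hydroxylated Luciferin-H (100uM, at its KM) to luciferin in 25mM KPO4. Compound was preincubated 10 min at 37C, then NADPH regeneration started a 60 min reaction at 37C. Luminescence was read after detection reagent, normalized to 57uM sulphaphenazole.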

[3] = biological target: Cytochrome P450 3A4 (Homo sapiens) (UniProt P08684); assay: qHTS Assay for Inhibitors and Substrates of Cytochrome P450 3A4 (AID 884; active = well fitted curve in the direction sought with a large enough effect; inconclusive = small, poorly fitted or top-dose-only effect, or another doubt; inactive = no such curve, though single readings can be large; an effect the other way counts as inactive or inconclusive; note: % is set by controls: 0 for no effect and ±100 for the full control effect; nearly all actives have a fitted effect of over 50% in size)
Chain of UniProt P08684 (P08684 whole entry, looked up): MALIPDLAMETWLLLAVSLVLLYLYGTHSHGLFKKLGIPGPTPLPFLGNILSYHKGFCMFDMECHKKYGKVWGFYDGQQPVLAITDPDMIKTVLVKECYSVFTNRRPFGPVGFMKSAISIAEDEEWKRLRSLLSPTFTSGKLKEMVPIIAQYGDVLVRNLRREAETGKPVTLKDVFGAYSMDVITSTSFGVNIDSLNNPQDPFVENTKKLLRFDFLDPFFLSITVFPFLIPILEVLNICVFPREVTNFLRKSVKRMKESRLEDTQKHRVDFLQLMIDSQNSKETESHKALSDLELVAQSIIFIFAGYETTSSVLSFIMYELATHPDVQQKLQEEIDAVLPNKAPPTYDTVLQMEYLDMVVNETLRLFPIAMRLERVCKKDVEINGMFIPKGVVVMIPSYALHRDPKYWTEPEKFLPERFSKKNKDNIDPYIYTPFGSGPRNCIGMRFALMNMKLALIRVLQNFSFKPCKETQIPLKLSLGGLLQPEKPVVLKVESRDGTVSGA
Summary of the method: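 Luminescent readout of luciferin produced by CYP3A4 (20 nM) dealkylation of Luciferin-PPXE, 25 uM (its KM). NADPH-driven reaction ran 60 min at RT after 10 min compound preincubation; data scaled to 57 uM ketoconazole as 100% inhibition.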

[4] = biological target: Cytochrome P450 2D6 (Homo sapiens) (UniProt P10635); assay: qHTS Assay for Inhibitors and Substrates of Cytochrome P450 2D6 (AID 891; active = well fitted curve in the direction sought with a large enough effect; inconclusive = small, poorly fitted or top-dose-only effect, or another doubt; inactive = no such curve, though single readings can be large; an effect the other way counts as inactive or inconclusive;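 note: luciferin methyl ether substrate demethylated by CYP2D6 with NADPH regeneration; top concentration of the series differs between compounds; % is set by controls: 0 for no effect and ±100 for the full control effect; nearly all actives have a fitted effect of over 60% in size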)
Chain of UniProt P10635 (P10635 whole entry, looked up): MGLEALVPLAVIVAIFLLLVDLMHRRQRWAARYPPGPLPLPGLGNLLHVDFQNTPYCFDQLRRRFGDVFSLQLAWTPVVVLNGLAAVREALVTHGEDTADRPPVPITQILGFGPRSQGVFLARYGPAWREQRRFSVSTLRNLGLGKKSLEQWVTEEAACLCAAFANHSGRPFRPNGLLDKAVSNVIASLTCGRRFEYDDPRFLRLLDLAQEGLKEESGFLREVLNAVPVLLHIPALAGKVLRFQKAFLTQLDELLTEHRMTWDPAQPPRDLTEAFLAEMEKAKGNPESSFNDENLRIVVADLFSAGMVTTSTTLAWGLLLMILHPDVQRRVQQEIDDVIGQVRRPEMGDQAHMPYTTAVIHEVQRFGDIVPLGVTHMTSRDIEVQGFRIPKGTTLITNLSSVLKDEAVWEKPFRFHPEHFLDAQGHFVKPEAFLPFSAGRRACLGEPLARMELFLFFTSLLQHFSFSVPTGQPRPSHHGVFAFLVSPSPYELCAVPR
Summary of the method: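 Luminescent read-out of luciferin formed by 5 nM human CYP2D6 demethylating 30 uM Luciferin-ME EGE (Km level) over 60 min at room temperature after NADPH regeneration addition. Data normalized to full inhibition by 1.43 uM quinidine.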

[5] = qHTS Assay for Lipid Storage Modulators (AID 1519); conditions: Drosophila S3 cells, BODIPY lipid droplet/cell ratio, laser cytometry, cells loaded with oleic acid; activity change, negative = inhibition: at 57.5 µM (top of the series) unless noted; note: % is set by controls: 0 for no effect and ±100 for the full control effect
Summary of the method: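 Cells seeded at 5,000 per well were treated with compounds over a concentration series and loaded with oleic acid (400 uM, as added). Lipid droplet fluorescence (488 nm excitation, 500-530 nm channel) was read by laser-scanning cytometry and normalized to 20 uM Triacsin C.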

[6] = biological target: Ubiquitin carboxyl-terminal hydrolase 1 (Homo sapiens) (UniProt O94782); assay: Inhibitors of USP1/UAF1: Pilot qHTS (AID 504865; active = well fitted curve in the direction sought with a large enough effect; inconclusive = small, poorly fitted or top-dose-only effect, or another doubt; inactive = no such curve, though single readings can be large; an effect the other way counts as inactive or inconclusive;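 note: rhodamine fluorescence freed from ubiquitin-rhodamine substrate followed over time; potency is the fitted concentration of half-maximal effect; nearly all actives have a fitted effect of over 35% in size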)
Chain of UniProt O94782 (O94782 whole entry, looked up): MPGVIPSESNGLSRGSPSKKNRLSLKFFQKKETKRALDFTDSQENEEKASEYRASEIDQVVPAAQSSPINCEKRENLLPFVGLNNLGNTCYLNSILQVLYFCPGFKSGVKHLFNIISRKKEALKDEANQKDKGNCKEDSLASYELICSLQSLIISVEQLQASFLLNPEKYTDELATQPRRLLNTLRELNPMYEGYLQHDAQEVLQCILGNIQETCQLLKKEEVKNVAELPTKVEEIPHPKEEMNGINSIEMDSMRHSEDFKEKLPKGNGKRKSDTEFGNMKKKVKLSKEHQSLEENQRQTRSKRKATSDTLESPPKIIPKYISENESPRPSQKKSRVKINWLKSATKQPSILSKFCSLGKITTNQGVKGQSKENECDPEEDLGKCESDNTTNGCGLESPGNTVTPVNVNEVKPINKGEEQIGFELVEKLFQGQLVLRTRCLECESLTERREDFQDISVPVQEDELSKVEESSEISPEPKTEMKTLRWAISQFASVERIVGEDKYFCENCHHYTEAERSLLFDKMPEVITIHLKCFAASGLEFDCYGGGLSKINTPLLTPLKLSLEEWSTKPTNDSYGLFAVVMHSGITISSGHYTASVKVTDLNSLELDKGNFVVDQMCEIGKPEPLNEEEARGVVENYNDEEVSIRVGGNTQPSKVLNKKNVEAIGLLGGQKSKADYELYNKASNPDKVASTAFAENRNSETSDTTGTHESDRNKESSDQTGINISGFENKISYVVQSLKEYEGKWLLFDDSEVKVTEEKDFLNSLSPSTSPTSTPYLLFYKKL
Summary of the method: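 Kinetic fluorescence assay: 1nM USP1/UAF1, 15 min compound preincubation, then 150nM Ub-Rho; 480/540 nm.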

[7] = biological target: Estrogen receptor (Homo sapiens) (UniProt P03372); assay: qHTS assay for small molecule antagonists of estrogen receptor alpha signaling (AID 588513; active = well fitted curve in the direction sought with a large enough effect in the signal ratio, with a control signal flat, not every such curve was filed as active; inconclusive = small, poorly fitted or top-dose-only effect, or effect the other way, or a change in a side signal; inactive = no such curve, though single readings can be large or run the other way; the % refers to the signal ratio; note: potency is the fitted concentration of half-maximal effect); conditions: ER-alpha-UAS-bla HEK293, beta-lactamase ratio, antagonist mode; activity, negative = inhibition: at 76.9 µM (top of the series)
Chain of UniProt P03372 (P03372 whole entry, looked up): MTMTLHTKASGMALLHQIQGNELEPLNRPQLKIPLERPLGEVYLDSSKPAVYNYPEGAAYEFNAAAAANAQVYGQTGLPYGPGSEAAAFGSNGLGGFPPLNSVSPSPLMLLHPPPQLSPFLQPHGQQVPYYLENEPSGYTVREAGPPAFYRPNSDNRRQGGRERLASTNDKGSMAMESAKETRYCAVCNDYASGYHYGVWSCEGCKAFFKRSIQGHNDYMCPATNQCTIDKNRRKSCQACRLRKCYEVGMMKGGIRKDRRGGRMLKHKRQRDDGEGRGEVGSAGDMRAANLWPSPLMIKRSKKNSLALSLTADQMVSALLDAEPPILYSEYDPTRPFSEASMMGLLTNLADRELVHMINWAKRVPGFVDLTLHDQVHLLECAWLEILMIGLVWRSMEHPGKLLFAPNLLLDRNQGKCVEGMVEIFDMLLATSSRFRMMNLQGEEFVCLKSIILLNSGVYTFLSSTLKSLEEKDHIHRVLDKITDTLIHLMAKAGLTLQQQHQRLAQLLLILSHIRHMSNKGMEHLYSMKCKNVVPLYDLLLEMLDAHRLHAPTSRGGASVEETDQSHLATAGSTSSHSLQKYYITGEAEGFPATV
Summary of the method: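 Cells were plated at 5000/well and incubated 4 h at 37 C. Compounds were added as 1:2 dilution series, duplicates. 17-beta-estradiol (0.5nM final) was added for 18 h before CCF4 detection.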

[8] = biological target: Estrogen receptor (Homo sapiens) (UniProt P03372); assay: qHTS assay for small molecule agonists of estrogen receptor alpha signaling (AID 588514); conditions: ER-alpha-UAS-bla HEK293, beta-lactamase ratio, 18 h; activation: at 76.8 µM (top of the series), percent of full estradiol response, vehicle zero unless noted; note: potency is the fitted concentration of half-maximal effect; nearly all actives have a fitted effect of over 70% in size
Summary of the method: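 Efficacy is expressed against 20 nM 17-beta-estradiol (100%) and DMSO basal (0%); EC50 from Hill equation. Assay: beta-lactamase reporter in ER-alpha-UAS-bla HEK 293 cells, 18 h compound incubation, CCF4 detection.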

[9] = biological target: Glucocorticoid receptor (Homo sapiens) (UniProt P04150); assay: qHTS assay for small molecule agonists of glucocorticoid receptor signaling (AID 588532; active = well fitted curve in the direction sought with a large enough effect in the signal ratio, with a control signal flat; inconclusive = small, poorly fitted or top-dose-only effect, or a change in a side signal; inactive = no such curve, though single readings can be large or run the other way; the % refers to the signal ratio; note: potency is the fitted concentration of half-maximal effect); conditions: HeLa MMTV-bla, beta-lactamase ratio, agonist, 18 h; activation: hits give high values, percent of dexamethasone control, DMSO zero
Summary of the method: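 MMTV-bla HeLa, beta-lactamase reporter; medium with 1% charcoal/dextran-stripped FBS; cpds up to 92 uM, 18 h, 37 C; CCF4 readout 460/530 nm; Hill fit → EC50, efficacy vs 0.1 uM dexamethasone = 100%.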

[10] = biological target: Glucocorticoid receptor (Homo sapiens) (UniProt P04150); assay: qHTS assay for small molecule antagonists of glucocorticoid receptor signaling (AID 588533; active = well fitted inhibition curve with a large enough effect in the signal ratio, with a control signal flat, not every such curve was filed as active; inconclusive = small, poorly fitted or top-dose-only effect, or effect the other way, or a change in a side signal; the % refers to the signal ratio;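 note: cells stimulated with 2 nM dexamethasone as agonist; % is set by controls: 0 for no effect and ±100 for the full control effect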); conditions: HeLa MMTV-bla, GRE beta-lactamase ratio, antagonist mode, 18 h; activity change, negative = inhibition: at 76.8 µM (top of the series)
[11] = biological target: Peroxisome proliferator-activated receptor delta (Homo sapiens) (UniProt Q03181); assay: qHTS assay for small molecule agonists of peroxisome proliferator-activated receptor delta signaling (AID 588534); conditions: HEK293T PPARdelta-UAS-bla, beta-lactamase ratio, 18 h; activation: at 76.7 µM (top of the series); note: potency is the fitted concentration of half-maximal effect
Chain of UniProt Q03181 (Q03181 whole entry, looked up): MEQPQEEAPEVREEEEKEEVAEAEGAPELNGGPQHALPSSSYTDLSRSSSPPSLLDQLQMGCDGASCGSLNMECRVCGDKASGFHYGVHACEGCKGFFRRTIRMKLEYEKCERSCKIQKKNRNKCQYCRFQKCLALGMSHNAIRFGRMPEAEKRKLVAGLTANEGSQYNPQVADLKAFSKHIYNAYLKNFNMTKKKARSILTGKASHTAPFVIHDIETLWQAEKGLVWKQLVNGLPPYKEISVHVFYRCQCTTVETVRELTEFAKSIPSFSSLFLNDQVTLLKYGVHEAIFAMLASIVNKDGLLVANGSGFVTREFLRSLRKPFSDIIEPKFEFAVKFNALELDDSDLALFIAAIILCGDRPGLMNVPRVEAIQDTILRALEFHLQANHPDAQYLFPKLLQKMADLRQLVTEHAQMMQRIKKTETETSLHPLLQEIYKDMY
Summary of the method: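 Agonist-mode qHTS; reporter cells, 5 hrs 37 C pre-incubation; compound titration, 18 hrs 37 C; CCF4 dye, 2 hrs RT; fluorescence read. EC50/efficacy via Hill fit.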

[12] = biological target: Peroxisome proliferator-activated receptor delta (Homo sapiens) (UniProt Q03181); assay: qHTS assay for small molecule antagonists of peroxisome proliferator-activated receptor delta signaling (AID 588535; active = well fitted inhibition curve with a large enough effect in the signal ratio, with a control signal flat, not every such curve was filed as active; inconclusive = small, poorly fitted or top-dose-only effect, or effect the other way, or a change in a side signal; inactive = no such curve, though single readings can be large or run the other way; the % refers to the signal ratio; note: potency is the fitted concentration of half-maximal effect); conditions: HEK293T PPARd-UAS-bla, beta-lactamase FRET ratio, 18 h; activity change, negative = inhibition: at 76.7 µM (top of the series)
Summary of the method: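 Inhibition of PPAR-delta response element-driven beta-lactamase expression is measured in HEK293T cells exposed to a compound titration series for 18 hrs at 37 C. Half-maximal inhibition comes from Hill equation fitting.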

[13] = biological target: Peroxisome proliferator-activated receptor gamma (Homo sapiens) (UniProt P37231); assay: qHTS assay for small molecule agonists of peroxisome proliferator-activated receptor gamma signaling (AID 588536; active = well fitted curve in the direction sought with a large enough effect in the signal ratio, with a control signal flat, not every such curve was filed as active; inconclusive = small, poorly fitted or top-dose-only effect, or effect the other way, or a change in a side signal; inactive = no such curve, though single readings can be large or run the other way; the % refers to the signal ratio;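 note: 0% = DMSO basal wells and 100% = rosiglitazone at 2 µM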); conditions: HEK293 PPARg-UAS-bla, beta-lactamase ratio, 16 h; activation: at 76.7 µM (top of the series), percent of rosiglitazone response, DMSO as zero
Summary of the method: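 Cells were plated and held 6–6.5 h at 37 C, then compounds were added as a titration series. After a further 16 h, CCF4 dye was loaded for 2 h at room temperature and emission at 460/530 nm recorded.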

[14] = biological target: Peroxisome proliferator-activated receptor gamma (Homo sapiens) (UniProt P37231); assay: qHTS assay for small molecule antagonists of peroxisome proliferator-activated receptor gamma signaling (AID 588537; active = well fitted inhibition curve with a large enough effect in the signal ratio, with a control signal flat, not every such curve was filed as active; inconclusive = small, poorly fitted or top-dose-only effect, or effect the other way, or a change in a side signal; the % refers to the signal ratio;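 note: reporter cells co-stimulated with 50 nM rosiglitazone agonist during compound treatment; potency is the fitted concentration of half-maximal effect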); conditions: HEK293 PPARg-UAS-bla, beta-lactamase ratio, antagonist mode; activity, negative = inhibition: at 76.8 µM (top of the series)
Summary of the method: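 Compounds are tested as concentration series for inhibition of rosiglitazone-driven (50 nM) reporter expression in GeneBLAzer PPAR-gamma-UAS-bla HEK293 cells. After 16 h at 37 C, CCF4 substrate is added for 2 h at room temperature and blue/green fluorescence is measured.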

[15] = biological target: Retinoic acid receptor RXR-alpha (Homo sapiens) (UniProt P19793); assay: qHTS assay for small molecule agonists of retinoid X receptor alpha signaling (AID 588544); conditions: HEK293T RXRa-UAS-bla, beta-lactamase reporter, 18 h; activation: at 76.7 µM (top of the series); note: potency is the fitted concentration of half-maximal effect;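 for activation: 0% = DMSO basal wells and 100% = reference agonist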
Chain of UniProt P19793 (P19793 whole entry, looked up): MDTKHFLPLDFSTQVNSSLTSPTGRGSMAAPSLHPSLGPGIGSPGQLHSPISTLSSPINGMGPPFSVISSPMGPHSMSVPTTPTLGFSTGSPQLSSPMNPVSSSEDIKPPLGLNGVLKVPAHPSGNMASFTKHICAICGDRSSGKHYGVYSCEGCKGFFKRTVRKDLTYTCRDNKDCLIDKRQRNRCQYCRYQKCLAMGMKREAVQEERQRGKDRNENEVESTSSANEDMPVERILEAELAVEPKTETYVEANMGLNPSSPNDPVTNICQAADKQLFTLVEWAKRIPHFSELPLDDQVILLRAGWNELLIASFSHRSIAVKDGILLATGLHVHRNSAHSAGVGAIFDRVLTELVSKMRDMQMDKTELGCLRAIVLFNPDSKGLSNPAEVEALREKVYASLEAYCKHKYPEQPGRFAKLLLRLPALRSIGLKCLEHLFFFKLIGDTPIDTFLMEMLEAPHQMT

[16] = biological target: Thyroid hormone receptor beta (Homo sapiens) (UniProt P10828); assay: qHTS assay for small molecule agonists of thyroid hormone receptor beta signaling (AID 588545); conditions: TR-UAS-bla GripTite HEK 293, beta-lactamase ratio, agonist mode, 18 h; activation: at 76.7 µM, percent of T3 response, DMSO as zero; note: potency is the fitted concentration of half-maximal effect
Chain of UniProt P10828 (P10828 whole entry, looked up): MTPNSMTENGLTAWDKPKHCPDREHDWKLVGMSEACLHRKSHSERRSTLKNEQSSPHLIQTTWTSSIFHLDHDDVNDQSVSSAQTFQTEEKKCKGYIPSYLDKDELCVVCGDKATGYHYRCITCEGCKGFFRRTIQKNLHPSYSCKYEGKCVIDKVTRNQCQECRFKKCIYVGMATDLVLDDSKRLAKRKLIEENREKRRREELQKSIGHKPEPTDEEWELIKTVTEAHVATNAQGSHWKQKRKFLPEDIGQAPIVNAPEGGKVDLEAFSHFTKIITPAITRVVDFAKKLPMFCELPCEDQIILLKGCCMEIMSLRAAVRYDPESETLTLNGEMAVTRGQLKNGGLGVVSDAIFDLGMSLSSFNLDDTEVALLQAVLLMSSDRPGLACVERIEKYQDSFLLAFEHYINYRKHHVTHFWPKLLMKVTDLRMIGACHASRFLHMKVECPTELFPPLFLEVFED
Summary of the method: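 Cells (2500/well) were seeded, incubated 4 hrs at 37 C, dosed with a compound series, incubated 18 hrs, loaded with CCF4 dye for 2 hrs at RT, then read for fluorescence. Data were scaled between DMSO (0%) and 10 nM T3 (100%).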

[17] = biological target: Retinoic acid receptor RXR-alpha (Homo sapiens) (UniProt P19793); assay: qHTS assay for small molecule antagonists of retinoid X receptor alpha signaling (AID 588546; active = well fitted inhibition curve with a large enough effect in the signal ratio, with a control signal flat, not every such curve was filed as active; inconclusive = small, poorly fitted or top-dose-only effect, or effect the other way, or a change in a side signal; inactive = no such curve, though single readings can be large or run the other way; the % refers to the signal ratio; note: potency is the fitted concentration of half-maximal effect;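 for max response: cells stimulated with 9-cis-retinoic acid as agonist; % is set by controls: 0 for no effect and ±100 for the full control effect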); conditions: HEK293T RXRa-UAS-bla, beta-lactamase ratio, antagonist mode
Summary of the method: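 Beta-lactamase reporter inhibition, read as CCF4 fluorescence ratio (ex 405, em 460/530 nm) after 2 h at RT. HEK293T UAS-bla cells, 2500/well, were stimulated with 9-cis-RA at 500 or 100 nM final alongside test compound for 18 h at 37 C.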

[18] = biological target: Thyroid hormone receptor beta (Homo sapiens) (UniProt P10828); assay: qHTS assay for small molecule antagonists of thyroid hormone receptor beta signaling (AID 588547; active = well fitted inhibition curve with a large enough effect in the signal ratio, with a control signal flat, not every such curve was filed as active; inconclusive = small, poorly fitted or top-dose-only effect, or effect the other way, or a change in a side signal; the % refers to the signal ratio; note: potency is the fitted concentration of half-maximal effect); conditions: TR-UAS-bla HEK293, beta-lactamase ratio, antagonist mode, 18 h
Summary of the method: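 TR-UAS-bla GripTite HEK293 cells in 2% charcoal/dextran FBS medium were preincubated 4 h at 37 C, given compound (0.59 nM to 92 uM) plus 0.4 nM T3 (final) for 18 h, then CCF4 for 2 h at RT; Hill fit gave IC50.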

[19] = qHTS assay for small molecule agonists of the antioxidant response element (ARE) signaling pathway measured by Nrf2-dependant transcriptional activity - cell viability counter screen (AID 720653; active = well fitted curve in the direction sought with a large enough effect in the repeat runs; inconclusive = weak or mixed curves; inactive = no such curve, though single readings can be large; an effect the other way counts as inactive or inconclusive; note: potency is the fitted concentration of half-maximal effect); conditions: ARE-bla HepG2 viability, CellTiter-Glo ATP luminescence, 16 h; max response: hits give low values
Summary of the method: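 ARE-bla HepG2 cells (2,000/well) rested 5 hrs at 37C/5% CO2, then exposed to compounds in DMSO for 16 hrs. Viability was read in the same wells as intracellular ATP by luminescence, 30 min at room temperature after reagent addition.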

[20] = qHTS assay for cell viability of HEK293 cells (AID 743288; active = well fitted curve in the direction sought with a large enough effect; inconclusive = small, poorly fitted or top-dose-only effect, or another doubt; inactive = no such curve, though single readings can be large; an effect the other way counts as inactive or inconclusive; note: potency is the fitted concentration of half-maximal effect; nearly all actives have a fitted effect of over 50% in size); conditions: ATP luminescence (CellTiter-Glo), 18 h; max response: hits give low values
Summary of the method: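 Quantitative high-throughput screen: compounds were pinned onto parental HEK293 cells (2,000 per well) after a minimum 5 h settling at 37 C, incubated 18 h at 37 C, and intracellular ATP measured by luciferase luminescence.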
Tags give direction and shape of the fitted curve or compound fluorescence and quenching.

CC[C@]1(O)C(=O)OCc2c1cc1n(c2=O)Cc2cc3ccccc3nc2-1
inconclusive: Potency [1] 19 µM [activator, single point] | activity change, negative = inhibition [5] 0.152%
inactive: Potency [2] | Potency [3] | Potency [4]

CN(C(=O)Cc1ccccc1)[C@H](CN1CCCC1)c1ccccc1
inconclusive: Potency [1] 4.77 µM [rising, partial curve, poor fit] | activity change, negative = inhibition [5] 2.3%

c1ccc([C@H]2CNCc3ccccc32)cc1
inconclusive: Potency [1] 15.1 µM [rising, partial curve] | activity change, negative = inhibition [5] 12.1%

C#CCOS(=O)OC1CCCCC1Oc1ccc(C(C)(C)C)cc1 (centres undefined)
active: Potency [17] 7.08 µM
inactive: Potency [5]
inconclusive: Potency [6] 44.7 µM [inhibitor, partial curve, poor fit] | Potency [7] 2 µM [side channel, rising, full curve, poor fit] | Potency [8] 25.1 µM [side channel, rising, partial curve, poor fit] | Potency [9] 3.98 µM [side channel, rising, full curve] | activity change, negative = inhibition [10] -49.4% | Potency [11] 14.1 µM [side channel, rising, partial curve] | Potency [12] 2 µM [side channel, rising, partial curve, poor fit] | activation [13] -18.5% | Potency [14] 39.8 µM [side channel, rising, partial curve] | Potency [15] 14.1 µM [side channel, rising, partial curve] | Potency [16] 10 µM [side channel, rising, full curve] | Potency [18] 8.91 µM [fluorescent, side channel, full curve] | Potency [19] 14.1 µM [cytotoxic, partial curve] | Potency [20] 28.2 µM [cytotoxic, partial curve]

CSc1nc(NC(C)C)nc(NC(C)C)n1
inconclusive: activity change, negative = inhibition [5] 6.15% | Potency [7] 0.251 µM [side channel, rising, full curve, poor fit] | activation [15] 15.5% | max response [17] 5.02%
